Test results taken from PubChem BioAssay AID463173 (ICCB-Longwood Screening Facility, Harvard Medical School, 2010).
Among all 52,000 compounds or so, about 1,700 (3.3%) were called active. Rule as the data show it: active = survival mostly below about 52% (no sharp cut-off); inactive = mostly above about 56%. The list shows a part of the results.

What follows are compounds tested on Wild type (assay: growth inhibition of S. aureus wild type versus tarO mutant, primary screen, teichoic acid synthesis inhibitors, RN4220, OD600 (AID 463173)). Details: S. aureus RN4220 wild type/DeltatarO growth, OD600, 18 h, hits give low values, screened at 18.75 µg/mL (by protocol).

Row | SMILES | survival
1 | COc1ccc(S(=O)(=O)NCC(c2ccco2)N2CCOCC2)cc1C (stereo not given) | inactive: 89%
2 | O=C(Cn1c(=O)nc(-c2ccccc2)c2cc(Cl)ccc21)NCCc1ccc(Cl)cc1 | inactive: 75%
3 | CCOc1ccc(/C=C/c2nc3ccccc3n2S(=O)(=O)c2ccc(Br)cc2)cc1 | inactive: 78%
4 | COc1cccc(NC(=O)Cn2c(=O)n(-c3ccc(Cl)cc3)c(=O)c3sc4ccccc4c32)c1 | inactive: 83%
5 | CCN1CCN(c2ncc3c(n2)CCN(Cc2ccc(Br)s2)C3)CC1 | inactive: 60%
6 | CCc1ccc(NCc2cccn2-c2nnc(N3CCCCCC3)s2)cc1 | active: -1%
7 | CCc1ccc(-c2[nH]nc3nc(-c4ccc(OC)cc4)cc(C(=O)NCCc4ccc(OC)c(OC)c4)c23)cc1 | inactive: 71%
8 | CCOc1ccc(NC(=O)CSc2nnc(CNC(=O)c3c(F)cccc3Cl)o2)cc1 | inactive: 85%
9 | COc1ccc(OC)c(-c2cc(C(=O)Nc3cnn(Cc4ccc(Cl)cc4Cl)c3)no2)c1 | inactive: 60%
10 | Cc1ccc(NC(=O)Cn2nnc3sc(-c4ccccc4)cc3c2=O)cc1Cl | inactive: 83%
11 | Cc1ccc2c(c1)N(C(=O)NCc1ccccc1)CCO2 | inactive: 88%
12 | CCC(C)NC(=O)c1ccc2c(=O)n3c(nc2c1)CCCCC3 (stereo not given) | inactive: 78%
13 | COc1ccc(C)cc1NS(=O)(=O)c1ccc2c(c1)n(C)c(=O)n2C | inactive: 65%
14 | CCC(CC)c1nn2c(=O)cc(COc3ccc(NC(=O)c4cccc(Cl)c4)cc3)nc2s1 | inactive: 88%
15 | COc1ccc(C(=O)NCC2(N3CCN(C)CC3)CCCCC2)cc1 | inactive: 85%
16 | COC(=O)c1ccc(Cl)cc1NC(=O)N(Cc1ccc(C)o1)C1CCN(C(C)=O)CC1 | inactive: 76%
17 | CCn1c(=O)c(=O)n(CC)c2cc(N3CCCCC3)c(NC(=O)c3cccc(F)c3)cc21 | inactive: 87%
18 | CCOC(=O)CNc1nnc(SCC(=O)OCC)[nH]c1=O | inactive: 97%
19 | Cc1nnc2c(Nc3cccc(O)c3)nc3ccccc3n12 | inactive: 75%
20 | CC(C)(C)c1nnc(NC(=O)CS(=O)(=O)Cc2ccccc2)s1 | inactive: 104%
21 | Cc1cc2c(N=NC(=O)C3CC34CCC4)c(O)[nH]c2cc1Br (stereo not given) | inactive: 97%
22 | CC(=O)Nc1ccc(C)cc1-c1nc2ccccc2n(CC(=O)Nc2cc(Cl)ccc2C)c1=O | inactive: 90%
23 | O=C(O)c1ccc(CO)o1 | inactive: 101%

Row | SMILES | survival
24 | CC(C)CN1C(=O)c2ccc(Br)cc2C1=O | inactive: 100%
25 | COC(=O)c1ccc(C(C)N(C)C)o1 (stereo not given) | inactive: 107%
26 | CCCN1Cc2cccc(C(=O)Nc3cc(C)cc(C)c3)c2C1=O | inactive: 87%
27 | Cc1nc2ccc(NC(=O)C3CC3)cc2c(=O)n1Cc1ccc(F)cc1 | inactive: 103%
28 | COc1ccc(Cl)cc1NC(=O)CCC(=O)N1CCOc2ccccc21 | inactive: 83%
29 | CCO/C(C)=N\Oc1cc(=O)oc2ccccc12 | inactive: 122%
30 | COc1ccc(NC(=O)CSc2nc(-c3ccco3)cc(C(F)(F)F)n2)cc1 | inactive: 99%
31 | COc1ccc(NC(=O)Cn2c(=O)n(Cc3ccc(C(=O)NCc4ccccc4Cl)cc3)c(=O)c3ccccc32)cc1OC | inactive: 89%
32 | Cc1ccc(-n2ncc3c(NCCCn4ccnc4)ncnc32)cc1Cl | inactive: 75%
33 | COc1ccc(CC(=O)NCC(c2ccc(N(C)C)cc2)N2CCOCC2)cc1 (stereo not given) | inactive: 81%
34 | CC(C)c1ccc(OC(=O)c2cc(-c3ccc(Cl)cc3)on2)cc1 | inactive: 98%
35 | CCCNC(=O)N1[C@H](c2ccc(C)s2)[C@@H](C)C(=O)[C@@H](C)[C@@H]1c1ccc(C)s1 | inactive: 83%
36 | COC(=O)c1cnc(NCc2ccc(F)cc2)c2ccccc12 | inactive: 135%
37 | Cc1cc(F)ccc1S(=O)(=O)Nc1ccc2c(c1)CCCN2C(=O)c1cccs1 | inactive: 75%
38 | COc1ccc(N2C(=O)C(CC(=O)Nc3ccc(F)cc3)N(Cc3ccc4c(c3)OCO4)C2=O)cc1 (stereo not given) | inactive: 79%
39 | Nc1nnnn1/N=C/c1cccc(Br)c1 | inactive: 117%
40 | CCN(CC)C(=O)Cn1c(=O)nc(-c2ccccc2F)c2cc(Cl)ccc21 | inactive: 73%
41 | CCOC(=O)Cc1ccc(NC(=O)NCc2cccn2Cc2ccccc2)cc1 | active: -6%
42 | O=C1c2[nH]nc(-c3ccccc3O)c2C(c2ccccc2F)N1Cc1ccncc1 (stereo not given) | inactive: 93%
43 | Cc1ccc(NC(=O)CSc2nc(-c3cccs3)nc3cc(=O)[nH]n23)cc1 | inactive: 71%
44 | COc1ccc(-n2c(=O)c3sc4ccccc4c3n(CC(=O)Nc3ccccc3F)c2=O)cc1 | inactive: 87%
45 | CCC(Cc1ccccc1)NC(=O)Cn1ncc2c3ccccc3n(Cc3ccccc3)c2c1=O (stereo not given) | inactive: 80%
